Reference: PubChem BioAssay AID588855 (National Center for Advancing Translational Sciences (NCATS), 2011)
In all, about 410,000 compounds went through this assay and about 5,000 (1.2%) were called active. This list was built around the results that the source calls inconclusive (neither active nor inactive); the mix of calls is not that of the screen. The call rests on the fitted dose curve; in most records, active means well fitted inhibition curve with a large enough effect; inconclusive means small, poorly fitted or top-dose-only effect; inactive means no such curve, though single readings can be large or run the other way. Potencies beside an inconclusive call are fits to weak or partial responses and may not hold up.

Experiment: qHTS for Inhibitors of TGF-b; further: nearly all actives have a fitted effect of over 65% in size
Conditions: HepG2 CAGA-GFP TGF-b/SMAD3 reporter, GFP fluorescence, 18 h, TGF-beta stimulated, 500 pg/mL final; series mostly up to 46.1 µM; activity, negative = inhibition: at the top concentration
How it was run: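 Cell-based qHTS in HEPG2 carrying a CAGA-GFP Smad reporter; compounds added before 500 pg/mL final TGF-beta, 18 h incubation at 37 degrees C, GFP fluorescence quantified per cell by imaging cytometry.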
On the % scale 0 is the no-effect control and ±100 the full control effect; potency means the concentration at half of the fitted maximal effect; tags describe the fitted curve by direction and shape.

SMILES	activity, negative = inhibition	Potency
COc1cc(C2c3c(-c4ccccc4O)n[nH]c3C(=O)N2Cc2ccco2)cc(OC)c1OC (stereo unspecified)	inactive: -1.33%	
C=C(C)CSc1nc2ncccc2[nH]1		inconclusive: 0.158 µM [inhibitor, full curve, poor fit]
O=[N+]([O-])c1cccc(/C=N/Nc2nccnc2Cl)c1		inconclusive: 28.2 µM [inhibitor, single point]
CCCCCn1c(=O)[nH]c2cc(C(=O)N3CCN(c4cccc(Cl)c4)CC3)ccc2c1=O		inconclusive: 12.6 µM [inhibitor, partial curve, poor fit]
COCCNC(=O)c1cc(S(=O)(=O)N(C)C2CCCCC2)ccc1Cl	inactive: -2.98%	
Cc1ccc(-c2nc(CSCC(=O)N3CCN(C(=O)c4ccco4)CC3)c(C)o2)cc1		inconclusive: 17.8 µM [inhibitor, single point]
O=C(N/N=C/c1ccc2c(c1)OCO2)/C(=C/c1ccc2c(c1)OCO2)NC(=O)c1ccccc1		inconclusive: 17.8 µM [inhibitor, single point]
COc1ccc(N2C(=O)[C@@H]3[C@H](C2=O)[C@H](C(C)=O)N2c4ccccc4C=C[C@@H]32)cc1	inactive: 7.27%	
OCCN1CCN(CC(O)COc2ccc(C34CC5CC(CC(C5)C3)C4)cc2)CC1 (stereo unspecified)		inconclusive: 35.5 µM [inhibitor, single point]
Cc1ccc2nc(N(Cc3cccnc3)C(=O)c3ccco3)sc2c1	inactive: 2.79%	
Cn1c(=O)n(C)c2cc(NS(=O)(=O)c3ccc(C(C)(C)C)cc3)ccc21	inactive: -24.3%	
CC(C)C(=O)N(c1cc2sc(=O)oc2c2ccccc12)S(=O)(=O)c1cccs1		inconclusive: 0.794 µM [inhibitor, full curve, poor fit]
O=C(Nc1ccc(S(=O)(=O)Nc2ncccn2)cc1)c1ccc(Br)o1	inactive: -19.8%	
CCc1ccc(-n2c(SCc3nc(-c4cc(OC)ccc4OC)no3)nnc2-c2ccccc2)cc1		inconclusive: 25.1 µM [inhibitor, single point]
CCC(=O)c1cc2c(cc1NC(=O)c1cccs1)OCCO2		inconclusive: 1.58 µM [inhibitor, partial curve, poor fit]
COc1cnc(-c2ccccn2)nc1Oc1ccc(F)cc1F		inconclusive: 22.4 µM [inhibitor, single point]
COc1cc([N+](=O)[O-])cc(/C=N/NC(=O)c2ccc(NC(=O)c3ccc(C)cc3)cc2)c1O		inconclusive: 15.8 µM [inhibitor, partial curve, poor fit]
N=C(N=C(N)N)N1CCc2ccccc21	inactive: -2.69%	
COc1ccc(NC2=C(NC(C)=O)C(=O)c3ccccc3C2=O)cc1	inactive: -34.8%	
CCN(CC(=O)Nc1c(F)cccc1F)C(=O)c1cc([N+](=O)[O-])ccc1N1CCCCC1		inconclusive: 0.447 µM [inhibitor, partial curve, poor fit]
COc1ccc(-c2csc3ncnc(N4CCN(c5ccccc5Cl)CC4)c23)cc1		inconclusive: 15.8 µM [inhibitor, single point]
N#CC(=C1C=C(Br)C(=NO)C=C1Cl)c1cccc2ccccc12		inconclusive: 35.5 µM [inhibitor, single point]

SMILES	activity, negative = inhibition	Potency
Cc1ccc(S(=O)(=O)NC(CC(=O)n2nc(C)cc2C)c2ccccc2)cc1 (stereo unspecified)		inconclusive: 3.16 µM [inhibitor, partial curve, poor fit]
Cc1ccc(S(=O)(=O)N(C)c2ccc(C(=O)N3CCCCC3)cc2)cc1		inconclusive: 35.5 µM [inhibitor, single point]
COc1ccc2c(c1)CC[C@@H]1[C@@H]2CC[C@]2(C)[C@@H](C(C)=O)C[C@@H]12	inactive: 17.6%	
Cc1cccc(NC(=O)c2cnn(-c3ccccc3)c2C)c1C	inactive: 3.65%	
CC1=C(C(=O)N2CCOCC2)CC(CC(=O)NCCCCc2ccccc2)C(=O)N1Cc1ccc(C(C)(C)C)cc1 (stereo unspecified)		inconclusive: 35.5 µM [inhibitor, single point]
CCc1ccc(CN(C(=O)c2ccc(OC)cc2)C2CCS(=O)(=O)C2)cc1 (stereo unspecified)	inactive: 8.68%	
S=C(Nc1cccc(Cl)c1)N1CCN(c2ccccn2)CC1		inconclusive: 35.5 µM [inhibitor, single point]
CCOC(=O)c1ccc(NC(=O)CC2Nc3cccc4cccc(c34)NC2=O)cc1 (stereo unspecified)		inconclusive: 35.5 µM [inhibitor, single point]
CCC1Cc2c(nc(N)c3c(N)nc(N4CCCCC4)c(C#N)c23)O1 (stereo unspecified)		inconclusive: 35.5 µM [inhibitor, single point]
O=C(Nc1ccc(Cl)c(Cl)c1)Nc1nnc(-c2ccncc2)s1		inconclusive: 1 µM [inhibitor, full curve, poor fit]
O=C(C[C@H]1C(=O)N(Cc2ccccc2)C[C@@H]1Cc1ccccc1)Nc1ccc(Br)cc1		inconclusive: 35.5 µM [inhibitor, single point]
Cc1cc(C=C2C(=O)c3ccccc3C2=O)c(C)n1C		inconclusive: 22.4 µM [inhibitor, single point]
S=C(NC1CCCCC1)N1CCc2ccccc2C1		inconclusive: 7.08 µM [inhibitor, full curve]
Cc1cc(C(=O)O)ccc1-n1c(C)cc(/C=C(/C#N)C(=O)Nc2ccccc2)c1C	inactive: 18.1%	
COc1cccc(NS(=O)(=O)c2ccc3[nH]c4c(c3c2)CCCCCC4)c1		inconclusive: 17.8 µM [inhibitor, single point]
COc1ccc(C(=O)Nc2cccc(/C(C)=N\NC(=O)c3ccoc3C)c2)cc1OC	inactive: -6.22%	
Cc1c(CCOC(=O)CC23CC4CC(CC(C4)C2)C3)sc[n+]1CC(=O)c1ccccc1		inconclusive: 35.5 µM [inhibitor, single point]
CC(=O)c1ccc(OC(C)C(=O)NCC2(N3CCOCC3)CCCCC2)cc1 (stereo unspecified)	inactive: 23.3%	
COc1ccc(NC(=O)C(NC(=O)Cc2cccs2)c2ccc(OC)cc2)cc1 (stereo unspecified)	inactive: 0.305%	
COCCNC(=O)C1CCCN(C(=O)Cc2cccc3ccccc23)CC1 (stereo unspecified)	inactive: -4.76%	
CCOc1ccccc1NC(=O)Nc1ccc2nc(N3CCN(C)CC3)cc(C)c2c1		inconclusive: 35.5 µM [inhibitor, partial curve, poor fit]
Cc1ccc2nc(-c3cccc(Br)c3)c(CC3CCCCC3)n2c1		inconclusive: 35.5 µM [inhibitor, single point]

SMILES	activity, negative = inhibition	Potency
CC(CCc1ccccc1)NC(=O)CNC(=S)N(Cc1cccs1)C1CCCC1 (stereo unspecified)		inconclusive: 35.5 µM [inhibitor, single point]
O=c1cc(CSc2nnc(COc3ccccc3)n2-c2ccccc2)c2ccccc2[nH]1	inactive: 2.63%	
COc1cc2c(c(OC)c1OC)-c1ccc(OC)c(=O)cc1C(NC(=O)c1ccccc1)CC2 (stereo unspecified)		inconclusive: 0.316 µM [inhibitor, full curve]
CC(=O)c1ccccc1NS(=O)(=O)c1ccccc1Cl	inactive: -1.03%	
Cc1cc(C)c(N(C(=O)c2csnn2)C(C(=O)NC2CCCC2)c2ccncc2)c(C)c1 (stereo unspecified)		inconclusive: 3.55 µM [inhibitor, single point]
Cc1cccc(NC(=O)COc2ccc(/C=C\c3[nH]c(=O)[nH]c(=O)c3[N+](=O)[O-])cc2)c1	inactive: 12%	
C=CC[C@H](CC(=O)OC(C)(C)C)C(=O)OC[C@H]1CCCN1C(=O)[C@H](CC=C)CC(=O)NCCO		inconclusive: 6.31 µM [inhibitor, single point]
Cc1cc2cc(CNC(=O)c3ccc(C)c([N+](=O)[O-])c3)ccc2[nH]1	inactive: 1.3%	
CCN1C[C@@H]2[C@@H]3C(=O)N(C)C(=O)[C@@H]3[C@](CC)(C1=O)N2C(=O)c1ccc(C(F)(F)F)cc1		inconclusive: 0.631 µM [inhibitor, partial curve, poor fit]
COc1c(C)cccc1C(=O)Nc1ccc(Cl)c(-c2nc3cc(C)ccc3o2)c1		inconclusive: 10 µM [inhibitor, partial curve, poor fit]
O=C(Nc1ccn(CCCN2CCN(Cc3cccc4ccccc34)CC2)c(=O)n1)OCc1ccccc1		inconclusive: 28.2 µM [inhibitor, single point]
COc1ccc(NC(=O)Cn2ncc3c(C)n(Cc4cccc(Cl)c4)c(C)c3c2=O)cc1		inconclusive: 8.91 µM [inhibitor, partial curve]
CSc1nc(NC(C)(C)C)nc(N2CCOCC2)n1	inactive: 4.88%	
CNC(=O)c1sccc1Oc1ccc(F)cc1[N+](=O)[O-]		inconclusive: 6.31 µM [inhibitor, single point]
O=C(c1ccc2c(c1)OCCCO2)c1cccs1		inconclusive: 6.31 µM [inhibitor, single point]
COc1ccccc1CNCc1ccc(C(=O)O)s1		inconclusive: 0.316 µM [inhibitor, full curve, poor fit]
Cc1cc(C)nc(N/N=C/c2cc(Br)ccc2O)n1		inconclusive: 11.2 µM [inhibitor, partial curve]
COc1cccc(NC(=O)c2ccccc2OCC(=O)Nc2ccc(Br)cc2)c1		inconclusive: 35.5 µM [inhibitor, single point]
Cc1cccc(-c2n[nH]c(=S)n2-c2ccccc2)c1[N+](=O)[O-]	inactive: 8.76%	
CCN1CCN(c2ncc(C(=O)Nc3cc(Cl)ccc3OC)c3ccccc23)CC1		inconclusive: 35.5 µM [inhibitor, single point]
O=C(c1ccc2c3c(cccc13)CC2)C1CCCN(Cc2ccc(OCCO)cc2)C1 (stereo unspecified)		inconclusive: 35.5 µM [inhibitor, single point]
Oc1c(C=C2N=c3ccccc3=N2)sc(=S)n1-c1ccc2ccccc2c1	inactive: 0.193%	
